Laboratory results from paper PMC4336329 (PLoS ONE, 2015).
Among all 310,000 compounds or so, about 2,200 (0.71%) showed an effect of 50% or more. The effect is printed as a negative number. The list shows a part of the results.

What follows are compounds tested against human ether-à-go-go-related gene (hERG) potassium channel (human, UniProt Q12809) (assay: primary screen, population patch clamp on CHO cells stably expressing hERG).
Sequence of human ether-à-go-go-related gene (hERG) potassium channel (Q12809 whole entry, looked up): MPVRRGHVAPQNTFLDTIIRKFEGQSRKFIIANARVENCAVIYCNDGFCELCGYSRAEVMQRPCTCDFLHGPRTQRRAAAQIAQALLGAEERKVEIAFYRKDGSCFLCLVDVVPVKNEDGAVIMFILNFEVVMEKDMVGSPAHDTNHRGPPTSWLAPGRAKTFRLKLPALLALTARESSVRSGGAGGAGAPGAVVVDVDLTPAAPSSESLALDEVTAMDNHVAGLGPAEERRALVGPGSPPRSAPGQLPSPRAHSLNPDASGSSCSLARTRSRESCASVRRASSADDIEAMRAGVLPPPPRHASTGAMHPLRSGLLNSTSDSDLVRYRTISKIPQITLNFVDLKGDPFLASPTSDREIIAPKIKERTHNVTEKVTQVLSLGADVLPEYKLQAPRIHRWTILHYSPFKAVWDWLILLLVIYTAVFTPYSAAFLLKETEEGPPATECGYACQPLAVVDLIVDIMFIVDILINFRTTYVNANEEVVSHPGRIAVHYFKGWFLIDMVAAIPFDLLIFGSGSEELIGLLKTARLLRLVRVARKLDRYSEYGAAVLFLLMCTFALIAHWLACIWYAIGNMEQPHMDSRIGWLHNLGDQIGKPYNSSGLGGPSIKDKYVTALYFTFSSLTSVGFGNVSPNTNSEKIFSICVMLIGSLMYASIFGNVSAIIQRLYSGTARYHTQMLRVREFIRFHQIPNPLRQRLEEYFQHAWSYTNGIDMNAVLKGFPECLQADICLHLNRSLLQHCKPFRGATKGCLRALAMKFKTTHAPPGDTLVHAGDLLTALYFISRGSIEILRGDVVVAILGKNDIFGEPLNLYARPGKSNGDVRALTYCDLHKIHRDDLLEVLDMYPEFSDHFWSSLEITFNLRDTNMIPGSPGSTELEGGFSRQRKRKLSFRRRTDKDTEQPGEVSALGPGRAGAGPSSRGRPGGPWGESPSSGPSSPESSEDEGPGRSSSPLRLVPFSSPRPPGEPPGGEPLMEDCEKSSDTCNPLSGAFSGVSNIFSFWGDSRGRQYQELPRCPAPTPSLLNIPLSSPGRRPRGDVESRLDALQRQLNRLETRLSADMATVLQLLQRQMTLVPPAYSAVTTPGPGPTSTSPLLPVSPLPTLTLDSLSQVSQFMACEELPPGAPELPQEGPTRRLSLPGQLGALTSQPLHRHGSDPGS
For `CC(=O)c1ccc2c(c1)C1C=CCC1C(c1cc3c(cc1Br)OCO3)N2` (stereo not drawn), the “hERG current change (%, negative = inhibition) at 1uM” value was 13.3%.
In the case of `O=C(CSc1nnc(-c2ccccc2)o1)c1nnc(-c2ccccc2)o1`, the “hERG current change (%, negative = inhibition) at 1uM” value is reported as 14.5%.
With `O=C1C2CC=C(Cl)CC2C(=O)N1CCC[n+]1cccc2ccccc21` (stereo not drawn) the “hERG current change (%, negative = inhibition) at 1uM” value was 17.1%.
With `CCOC(=O)CC(NC(=O)CCc1c(C)nc2nc(C)nn2c1C)c1ccc(OC(C)C)cc1` (stereo not drawn) the “hERG current change (%, negative = inhibition) at 1uM” value was 4.88%.
In the case of `Cc1ncc(CO)c(/C=N/NC(=S)Nc2ccc(C(C)C)cc2)c1O`, the “hERG current change (%, negative = inhibition) at 1uM” value is reported as 12%.
In the case of `CN1C(=O)C(=Cc2ccccc2OCc2ccc(C(=O)O)cc2)C(=O)N(C)C1=O`, the “hERG current change (%, negative = inhibition) at 1uM” value is reported as 7.89%.
In the case of `CC1SCC(NC(=O)c2ccccc2Cl)CS1` (stereo not drawn), the “hERG current change (%, negative = inhibition) at 1uM” value is reported as 11%.
In the case of `CC(C)C[C@H](NC(=O)c1nc[nH]c1C(=O)NCC(=O)OC(C)(C)C)C(=O)OCc1ccccc1`, the “hERG current change (%, negative = inhibition) at 1uM” value is reported as 12.9%.
With `CCCN1CCC(=O)N([C@H](CN=[N+]=[N-])CC(C)C)CC1` the “hERG current change (%, negative = inhibition) at 1uM” value was 11%.
For `CCOC(=O)CNC(=O)/C=C/c1c(Cl)cccc1Cl`, the “hERG current change (%, negative = inhibition) at 1uM” value was 11.1%.
With `Cc1ccc(N=C2C(=O)Nc3ccc(Br)cc32)cc1` the “hERG current change (%, negative = inhibition) at 1uM” value was 11.9%.
For `Cc1ccn2c(NC3CCCCC3)c(C(C)C)nc2c1`, the “hERG current change (%, negative = inhibition) at 1uM” value was -6.2%.
In the case of `Cc1ccc(C(=O)N/C(=C\Cl)P(=O)(c2ccccc2)c2ccccc2)cc1`, the “hERG current change (%, negative = inhibition) at 1uM” value is reported as 15.9%.
For `COc1ccc(NC(=O)c2ccco2)cc1NC(=O)c1c(F)c(F)c(OC)c(F)c1F`, the “hERG current change (%, negative = inhibition) at 1uM” value was 0.726%.
For `c1cnc(-c2noc(CN3CCN(C4CCCC4)CC3)n2)cn1`, the “hERG current change (%, negative = inhibition) at 1uM” value was 11.7%.
`COc1cc(C(=O)NCc2nnc(SCC(=O)Nc3nccs3)o2)cc(OC)c1OC` was tested, and the “hERG current change (%, negative = inhibition) at 1uM” value was 7.49%.
In the case of `CC(C)NC(=O)/C(C#N)=C/c1ccc2c(c1)OCCO2`, the “hERG current change (%, negative = inhibition) at 1uM” value is reported as 6.31%.
With `O=C(OC1CCCCC1=O)c1cccc(S(=O)(=O)NCc2ccccc2)c1` (stereo not drawn) the “hERG current change (%, negative = inhibition) at 1uM” value was -1.88%.
With `CS(=O)(=O)N1CCC(CO)(Cc2ccccc2C(F)(F)F)CC1` the “hERG current change (%, negative = inhibition) at 1uM” value was 6.98%.
`Cc1cccc2cc(COC(=O)C3CCCCC3)c(=O)[nH]c12` was tested, and the “hERG current change (%, negative = inhibition) at 1uM” value was 16.5%.
In the case of `Oc1ccc2ccccc2c1C=NCc1cn2ccsc2n1`, the “hERG current change (%, negative = inhibition) at 1uM” value is reported as 9.39%.
In the case of `Oc1cncc(Cc2ccccc2)c1`, the “hERG current change (%, negative = inhibition) at 1uM” value is reported as 18.8%.
With `CCOC(=O)c1cc(CC)sc1/N=C/C1C(=O)CC(C)(C)CC1=O` the “hERG current change (%, negative = inhibition) at 1uM” value was 17.4%.
`O=C(Cc1ccccc1)N1CCN(C2CCCC2)CC1` was tested, and the “hERG current change (%, negative = inhibition) at 1uM” value was 7.17%.
`O=C(CCN1CCc2ccccc2C1)Nc1ccc2c(c1)OCO2` was tested, and the “hERG current change (%, negative = inhibition) at 1uM” value was 0.913%.
In the case of `Cc1cc(C)nc(NC(=O)/C=C/c2ccc(Cl)cc2Cl)c1`, the “hERG current change (%, negative = inhibition) at 1uM” value is reported as 9.93%.
`CCCCN1CNC(=S)N(c2cc(C)ccc2C)C1` was tested, and the “hERG current change (%, negative = inhibition) at 1uM” value was 7.21%.
For `O=CNn1cnc2c(oc3nc(-c4ccccc4)cc(-c4ccco4)c32)c1=O`, the “hERG current change (%, negative = inhibition) at 1uM” value was 12.5%.
In the case of `COc1ccc(CNC(=O)COC(=O)c2c(-c3c(F)cccc3Cl)noc2C)cc1OC`, the “hERG current change (%, negative = inhibition) at 1uM” value is reported as -2.97%.
In the case of `Cc1ccc(-c2cc(C(=O)NCCCN3CCOCC3)c3ccc(Cl)c(C)c3n2)cc1`, the “hERG current change (%, negative = inhibition) at 1uM” value is reported as 1.2%.
With `Cn1c(SCC(=O)N2CCCC2)nnc1-c1cnccn1` the “hERG current change (%, negative = inhibition) at 1uM” value was 1.48%.
For `CC(C)(CC(=O)O)CC(=O)Nc1ccc(Oc2ccc(C(C)(C)C)cc2)nc1`, the “hERG current change (%, negative = inhibition) at 1uM” value was 10.5%.
`Cc1ccccc1N=Nc1c(O)n(C)c2ccccc12` was tested, and the “hERG current change (%, negative = inhibition) at 1uM” value was 4.59%.
For `COc1cc(-c2nnc3n(CCc4ccccc4)c(=O)c4ccccc4n23)cc(OC)c1OC`, the “hERG current change (%, negative = inhibition) at 1uM” value was -0.301%.
For `Cc1cc(-c2nnc(SCC(=O)Nc3ccccc3C)n2N)n[nH]1`, the “hERG current change (%, negative = inhibition) at 1uM” value was -3.03%.
With `Cc1cccc(NC(=O)C2CC2c2ccccc2)c1C` (stereo not drawn) the “hERG current change (%, negative = inhibition) at 1uM” value was 12.1%.
In the case of `CN(c1ccc(OCc2ccc([N+](=O)[O-])cc2)cc1)S(=O)(=O)c1ccccc1`, the “hERG current change (%, negative = inhibition) at 1uM” value is reported as 1.74%.
With `CCOC(=O)c1c(S(=O)(=O)N2CCCCCC2)c(C)n(C)c1C` the “hERG current change (%, negative = inhibition) at 1uM” value was -0.322%.
In the case of `N#CCCn1c(Cl)nc2ccccc21`, the “hERG current change (%, negative = inhibition) at 1uM” value is reported as 5.03%.
For `Cc1cc(NC(=O)C2CC(c3cccc(Br)c3)=NO2)no1` (stereo not drawn), the “hERG current change (%, negative = inhibition) at 1uM” value was -4.71%.
`CCOC(=O)N1CCN(C(=O)CSc2nnc(-c3ccc(C)c(C)c3)o2)CC1` was tested, and the “hERG current change (%, negative = inhibition) at 1uM” value was -3.33%.
`Cc1cc(S(=O)(=O)N2CCOCC2)ccc1NC(=O)c1ccc(F)cc1` was tested, and the “hERG current change (%, negative = inhibition) at 1uM” value was 13.8%.
With `O=C(NCc1cccs1)C1CCCN(c2ncccn2)C1` (stereo not drawn) the “hERG current change (%, negative = inhibition) at 1uM” value was 3.61%.
With `Cc1ccc(CN(C(=O)c2cccs2)C2CCS(=O)(=O)C2)cc1` (stereo not drawn) the “hERG current change (%, negative = inhibition) at 1uM” value was -8.68%.
For `CCN(CC)c1ccc2cc(-c3nc4ccccc4n3C)c(=O)oc2c1`, the “hERG current change (%, negative = inhibition) at 1uM” value was 12%.
With `S=c1[nH]nc(-c2ccco2)n1/N=C/c1cccc(Cl)c1` the “hERG current change (%, negative = inhibition) at 1uM” value was 13.8%.
With `CC1CC(=S)Nc2ccccc2N1C(=O)Nc1ccccc1` (stereo not drawn) the “hERG current change (%, negative = inhibition) at 1uM” value was 8.73%.
`O=C(Nc1nc(-c2nc3ccccc3s2)cs1)c1ccco1` was tested, and the “hERG current change (%, negative = inhibition) at 1uM” value was 8.54%.
For `C[C@H](NC(=O)C1CCN(C(=O)[C@H](Cc2ccccc2)NC(=O)OC(C)(C)C)CC1)C(=O)O`, the “hERG current change (%, negative = inhibition) at 1uM” value was 5.32%.
For `Nc1nc2n(n1)C(c1ccccc1)CC(c1ccc(F)cc1)N2` (stereo not drawn), the “hERG current change (%, negative = inhibition) at 1uM” value was -2.09%.
With `CCOC(=O)C(C)Sc1cc(CS(=O)(=O)c2ccccc2)nc(-c2ccccc2)n1` (stereo not drawn) the “hERG current change (%, negative = inhibition) at 1uM” value was 19.7%.
For `COc1cc(C(=O)Nc2cc(-c3nc4cc(C)ccc4o3)ccc2C)cc(OC)c1OC`, the “hERG current change (%, negative = inhibition) at 1uM” value was 14%.
In the case of `CC(C)C(=O)N1CCC2(CC1)Oc1ccc(F)cc1C(=O)C21CC(c2ccccc2)=NO1` (stereo not drawn), the “hERG current change (%, negative = inhibition) at 1uM” value is reported as 15.7%.
In the case of `O=C(NC1CC1)C1=C[C@H](c2ccc3c(c2)OCO3)C[C@H](OCc2ccc(CO)cc2)O1`, the “hERG current change (%, negative = inhibition) at 1uM” value is reported as 5.59%.
For `COCCNC(=O)c1cccc(C)c1[N+](=O)[O-]`, the “hERG current change (%, negative = inhibition) at 1uM” value was 7.56%.
In the case of `O=C(CCCOc1ccccc1)N1CCCc2ccccc21`, the “hERG current change (%, negative = inhibition) at 1uM” value is reported as 4.28%.
`O=C(NCCCn1ccnc1)c1cc2ccccc2o1` was tested, and the “hERG current change (%, negative = inhibition) at 1uM” value was 2.15%.
